# In PubChem BioAssay AID686978 (National Center for Advancing Translational Sciences (NCATS), 2013):
# “And” between values parts separate entries of the source, which are not always exact repeats. Equal values may be shown once. The campaign covered roughly 420,000 compounds. About 64,000 (15%) were called active. This list was built around the results that the source calls inconclusive (neither active nor inactive); the mix of calls is not that of the screen. Calls come from the whole dose curve; as a rule, active = well fitted inhibition curve with a large enough effect; inconclusive = small, poorly fitted or top-dose-only effect; inactive = flat fitted curve, though single readings scatter. Potencies beside an inconclusive call are fits to weak or partial responses and may not hold up.
# Assay: qHTS for Inhibitors of human tyrosyl-DNA phosphodiesterase 1 (TDP1): qHTS in cells in absence of CPT; note: nearly all actives have a fitted effect of over 55% in size
# Conditions: DT40 Tdp1-/- hTDP1 cells, no CPT, ATP luminescence, 48 h; series mostly up to 46.2 µM
# Summary of the method: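 Chicken DT40 Tdp1-/- cells stably complemented with human TDP1 were seeded at 400 cells/well with DMSO in place of 20 nM camptothecin. After compound pinning, cells grew at least 48 hr at 37 °C; viability read by CellTiter-Glo luminescence.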
# Potency is the fitted concentration of half-maximal effect; tags give direction and shape of the fitted curve.
row,Compound,Potency
1,CC(=O)[C@H]1CC[C@H]2[C@@H]3CC[C@@H]4C[C@H](O)CC[C@]4(C)[C@H]3CC[C@]12C,inactive
2,CCC1C2CC3C4N(C)c5ccccc5[C@]45CC(C2C5O)N3C1O (some centres not stated),active: 0.366 µM
3,CC1CN=C(NCc2ccccc2Cl)S1 (configuration not stated),inactive
4,CCN(CC)c1ccc(C=NN2CCCCCC2)cc1,"inconclusive: 23.1 µM [inhibitor, single point]"
5,O=Cc1cn(Cc2ccc(Br)cc2)c2ccccc12,inactive
6,CN(CCc1nnc(N)s1)[N+](=O)[O-],inactive
7,COC(=O)C1=C(c2ccc(OCc3ccccc3)cc2)C[C@@H]2CC[C@H]1N2C(=O)NCc1ccc(OC)cc1,active: 6.51 µM
8,COc1cc2c(c(OC)c1OC)-c1ccc(O)cc1C(NC(C)=O)CC2 (configuration not stated),active: 0.184 µM
9,COC(=O)C1=C(c2ccc(C(C)=O)cc2)C[C@@H]2CC[C@H]1N2C(=O)N1CCOCC1,"inconclusive: 29.1 µM [inhibitor, single point]"
10,CSc1ccc(CN2CCC2(C)C(=O)Nc2cccc(NS(C)(=O)=O)c2)cc1 (configuration not stated),active: 23.1 µM
11,COCCCNC(=O)c1c(NC(=O)c2ccccc2)n(Cc2ccccc2)c2nc3ccccc3nc12,inactive
12,Oc1ccc2c3c1OC1c4[nH]c5ccccc5c4C[C@@]4(O)C(C2)N(CC2CC2)CC[C@]314 (some centres not stated),"inconclusive: 29.1 µM [inhibitor, single point]"
13,OC(c1ccncc1)(c1ccc(F)cc1)c1ccc(F)cc1,"inconclusive: 0.651 µM [inhibitor, full curve, poor fit]"
14,CCOP(=O)(OCC)c1nc(-c2cccc3ccccc23)oc1NCCc1ccc(OC)cc1,"inconclusive: 29.1 µM [inhibitor, single point]"
15,Cc1cc(NC(=O)COC(=O)c2c(C)nn(Cc3ccccc3)c2Cl)no1,inactive
16,O=S(=O)(c1ccccc1)N1CCN2CCCC2C1 (configuration not stated),inactive
17,C[n+]1c(-c2ccccc2)sc2ccccc21,active: 1.03 µM
18,CC(=O)OC12COC1CC(O)C1(C)C(=O)C(O)C3=C(C)C(O)CC(O)(C(OC(=O)c4ccccc4)C21)C3(C)C (configuration not stated),active: 1.03 µM
19,COc1cc2c(cc1OC)-c1c(OC)c(OC)cc3c1[C@H](C2)[N+](C)(C)CC3,inactive
20,COc1ccc2[nH]c(C)c(CCNCc3cn(C)c4ccccc34)c2c1,active: 9.2 µM
21,CC(C)C(C)(NC(=O)c1cccn(Cc2ccc3c(c2)OC(F)(F)O3)c1=O)C(N)=O (configuration not stated),inactive
22,COc1ccc2c(c1)c(C(=O)O)c(C)n2C(C)C,inactive
23,C#CCOCCOCCOCCNc1nc(N2CCN(C(=O)CCCCCCCCCCNC(=O)[C@H]([C@@H](C)CC)n3cc(CCCCN=C(N)N)nn3)CC2)nc(N2CCN(C(=O)CCCCCCCCCCNC(=O)[C@H](CO)n3cc(CCCCCN)nn3)CC2)n1,active: 20.6 µM
24,COc1ccc(OC)c(N2C(=O)NC(=O)C3(Cc4cc(C)ccc4N(C)C3)C2=O)c1 (configuration not stated),"inconclusive: 8.2 µM [inhibitor, partial curve]"

row,Compound,Potency
1,CCCN(CCC)[C@@H]1CCc2cccc(O)c2C1,"inconclusive: 33.5 µM [inhibitor, single point] and inconclusive: 21.1 µM [inhibitor, partial curve, poor fit]"
2,O=C(Oc1ccccc1)N1CCC2(CCN(Cc3nccs3)CC2)CC1,"inconclusive: 18.4 µM [inhibitor, single point]"
3,CCOc1cc(CN2CCN(C(=O)Cc3ccccc3)CC2)ccc1OC,"inconclusive: 29.1 µM [inhibitor, single point]"
4,Cc1ccc(N2C(=O)NC(=O)/C(=C\c3cnc(-c4ccccc4)nc3)C2=O)cc1,"inconclusive: 29.1 µM [inhibitor, single point]"
5,COc1ccc(S(=O)(=O)N(C)C[C@H]2Oc3c(NC(=O)NC4CCCCC4)cccc3C(=O)N([C@H](C)CO)C[C@@H]2C)cc1,"inconclusive: 25.9 µM [inhibitor, single point]"
6,CCOc1ccc(Nc2c(S(=O)(=O)c3ccc(C)cc3)cnc3ccc(F)cc23)cc1,"inconclusive: 29.1 µM [inhibitor, single point]"
7,C[C@@]12N[C@@H](Cc3ccccc31)c1ccccc12,inactive
8,C[C@]12CC3CC(N)(C1)C[C@@](C)(C3)C2,"inconclusive: 21.1 µM [inhibitor, partial curve, poor fit]"
9,CCS(=O)(=O)N1CCCC(C(=O)N2CCC3(CC2)OCCO3)C1 (configuration not stated),inactive
10,Cc1nn(C(C)(C)C)c(C)c1/C=N/OC(=O)Nc1ccc(Cl)cc1,"inconclusive: 23.1 µM [inhibitor, single point]"
11,C=CCN1C(=O)CSc2ccc(C(=O)N3CCC4(CC3)OCCO4)cc21,inactive
12,O=C(c1cc(C(=O)NCc2ccccc2)c(=O)n(Cc2ccccc2)c1)c1cc(Br)ccc1O,active: 25.9 µM
13,O=C(Nc1cccc2ccccc12)N1Cc2ccccc2-n2nncc2C1,"inconclusive: 23.1 µM [inhibitor, single point]"
14,COC1=C(C)C(=O)C2=C(C1=O)C(CO)N1C(C#N)C3CC4C(C1C2N1CCOC41)N3C (configuration not stated),active: 0.146 µM
15,COc1ccc(CNCCc2c[nH]c3ccccc23)c(OC)c1C,active: 7.31 µM
16,O=C(COc1ccc2ccc(=O)oc2c1)N1CCC(C(=O)O)(c2ccccc2)CC1,inactive
17,COc1ccc(-n2c(C)nc3cc(C(=O)N4CCC5(CC4)OCCO5)ccc32)cc1,"inconclusive: 23.1 µM [inhibitor, single point]"
18,C=C(c1ccccc1)P(=O)(O)O,inactive
19,CN1C2CCC1CC(OC(=O)CCN1CCCC1)C2 (configuration not stated),inactive
20,ClC=C(Cl)Cl,inactive
21,C=CCNC(=S)Nc1ccc(OC(=O)Nc2ccc(Cl)c(Cl)c2)cc1,"inconclusive: 20.6 µM [inhibitor, single point]"
22,COc1ccc(OC)c(CC(=O)N(C)C2CCCN(Cc3ccccc3F)C2)c1 (configuration not stated),inactive
23,CCOc1ccc(C(=O)Nc2cccc(C(=O)OCc3cc(=O)n4nc(C5CC5)sc4n3)c2)cc1,"inconclusive: 9.2 µM [inhibitor, partial curve]"
24,CC(C)c1ccc(NC(=O)c2ccc(F)c(S(=O)(=O)N3CCc4ccccc4C3)c2)cc1,active: 5.17 µM

row,Compound,Potency
1,NC(N)=N/N=C/c1ccc(N(c2ccccc2)c2ccccc2)cc1,active: 18.4 µM
2,c1cc(C2N3CCCN2CC3)ccn1 (configuration not stated),inactive
3,CC(Cc1ccccc1Sc1ccc(O)cc1)N(C)C (configuration not stated),active: 20.6 µM
4,COC(=O)C(c1ccccc1)C1CCCCN1 (configuration not stated),inactive
5,CCN1C[C@@]2(COC)C3[C@@H](OC)C4[C@@H]1[C@@]3(C1C[C@@]3(O)[C@H](OC(=O)c5ccccc5)C1[C@]4(OC(C)=O)[C@@H](O)[C@@H]3OC)[C@@H](OC)C[C@H]2O (some centres not stated),inactive
6,COC(=O)C1=C(c2cc3ccccc3s2)C[C@@H]2CC[C@H]1N2C(=O)N1CCC(O)CC1,active: 23.1 µM
7,CCN1CCN(c2ccc(NC(C)=O)cc2Cl)CC1,inactive
8,CC(C)=CCCC1(C)C=Cc2c(O)c3c(c(CC=C(C)C)c2O1)OC12C(=CC4CC1C(C)(C)OC2(C/C=C(/C)C(=O)O)C4O)C3=O (configuration not stated),active: 3.66 µM
9,CCCCCCCCN1C(=O)[C@H](CC(=O)N2CCCCC2)C[C@@]2(C(=O)OCC)CCCC=C12,active: 5.8 µM
10,COC(=O)[C@@H]1N=C(c2ccc(OC)cc2)O[C@]12C(=O)N(Cc1ccccc1)c1ccccc12,"inconclusive: 29.1 µM [inhibitor, single point]"
11,COc1ccc(S(=O)(=O)NC(CC(=O)N2CCC3(CC2)OCCO3)c2ccco2)cc1 (configuration not stated),inactive
12,C=C1C(=O)O[C@@H]2C[C@@H](C)[C@@H]3C=CC(=O)[C@@]3(C)[C@@H](OC(=O)CC(=O)O[C@H]3[C@@H]4C(=C)C(=O)O[C@@H]4C[C@@H](C)[C@@H]4C=CC(=O)[C@]43C)[C@H]12,active: 0.0731 µM
13,C[C@H]1C(=O)O[C@@H]2CCN3CC=C(COC(=O)[C@](C)(O)[C@]1(C)O)[C@H]23,"inconclusive: 16.8 µM [inhibitor, partial curve, poor fit] and inconclusive: 16.4 µM [inhibitor, partial curve, poor fit]"
14,CCCN1C[C@H](C)N([C@H](c2ccc(C(=O)N(CC)CC)cc2)c2cccc(OC)c2)C[C@H]1C,inactive
15,CCCC(=O)Nc1ccc(N2CCN(CC)CC2)c(Cl)c1,"inconclusive: 18.4 µM [inhibitor, single point]"
16,CC(=NCc1cccnc1)c1c(O)n(-c2ccccc2C)c(=O)[nH]c1=O,inactive
17,C[N+](C)(C)CC1CCCC(C[N+](C)(C)C)C1=O (configuration not stated),active: 0.058 µM
18,Cc1ccc(S(=O)(=O)Oc2ccccc2C=C2C(=O)N(C)C(=O)N(C)C2=O)cc1,"inconclusive: 29.1 µM [inhibitor, single point]"
19,Cn1c(CN2CCN(C(=O)COc3ccccc3)CC2)nc2cc([N+](=O)[O-])ccc21,"inconclusive: 20.6 µM [inhibitor, single point]"
20,CCCCn1nnnc1C(c1cccc(OC)c1OC)N1CCC2(CC1)C(=O)NCN2c1ccccc1 (configuration not stated),"inconclusive: 29.1 µM [inhibitor, single point]"
21,O=c1c2ccccc2nc(-c2ccco2)n1-c1ccncc1,inactive
22,CC(=O)NC(=O)NC(C)Cc1ccccc1 (configuration not stated),inactive
23,COc1ccc(-n2c(O)c(C(C)=NCCc3c[nH]c4ccccc34)c(=O)[nH]c2=O)cc1,"inconclusive: 29.1 µM [inhibitor, single point]"
24,COc1cccc(NC(=O)C2CCN(c3nnc(C)c4c(C)n(-c5ccccc5)nc34)CC2)c1,active: 23.1 µM
